According to PubChem BioAssay AID1347077 (National Center for Advancing Translational Sciences (NCATS), 2019):
Among all 44,000 compounds or so, fewer than 10 were called active. Inconclusive results, whose numbers are uncertain, are shown with a selection of clear calls. The call rests on the fitted dose curve; in most records, active means well fitted activation curve with a large enough effect; inconclusive means small, poorly fitted or top-dose-only effect, or another doubt; inactive means no such curve, though single readings can be large or run the other way. A potency beside an inconclusive call is a rough fit, not a confirmed value.

Target: Beta-2 adrenergic receptor (Homo sapiens) (UniProt P07550)
Sequence of UniProt P07550 (P07550 whole entry, looked up): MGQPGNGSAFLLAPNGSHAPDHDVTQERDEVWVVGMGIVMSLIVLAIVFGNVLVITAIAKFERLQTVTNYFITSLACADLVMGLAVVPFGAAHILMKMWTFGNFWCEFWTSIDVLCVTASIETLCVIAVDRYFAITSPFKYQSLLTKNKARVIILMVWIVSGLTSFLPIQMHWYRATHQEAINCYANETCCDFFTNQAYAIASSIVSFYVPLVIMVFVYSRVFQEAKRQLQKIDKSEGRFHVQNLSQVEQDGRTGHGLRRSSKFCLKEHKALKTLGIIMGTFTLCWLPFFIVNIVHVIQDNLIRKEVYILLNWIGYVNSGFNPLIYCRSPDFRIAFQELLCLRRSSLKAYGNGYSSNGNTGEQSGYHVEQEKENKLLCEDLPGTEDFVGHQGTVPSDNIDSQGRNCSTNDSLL
Test: qHTS assay of beta-arrestin-biased ligands of beta2-adrenergic receptor: NCGC Sytravon Library Screen
Settings: HTLA Tango cells, beta-arrestin recruitment, luciferase luminescence, 18 h; series mostly up to 46.1 µM
Outline: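 Luminescence read-out: arrestin recruitment to recombinant beta2-AR releases tTA, inducing luciferase. Cells exposed 18 hr at 37 degrees C to up to 46 microM compound; %Activity from corrected signal, concentration-response curves classified by r2, magnitude and efficacy.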
Potency means the concentration at half of the fitted maximal effect; tags describe the fitted curve by direction and shape.

Potency, inconclusive:
COc1ccc(NC(=O)c2c(C)oc3ccc(O)c(CN4CCN(Cc5ccccc5)CC4)c23)cc1Cl 4.47 µM [activator, full curve], CCN(CC)c1nc(-c2ccccc2Cl)c2cc(Br)ccc2n1 35.5 µM [activator, single point], CCOC(=O)Cn1c(=O)n(-c2ccccc2OC)c2nc(-c3ccc(C(C)C)cc3)nc(C(N)=O)c21 3.16 µM [activator, single point], COc1ccc(-c2noc(-c3ccc(NCC4CCCO4)c([N+](=O)[O-])c3)n2)cc1OC (stereo not given) 5.62 µM [activator, single point], COc1ccc(NC(=O)c2c(C)oc3ccc(O)c(CN4CCCCCC4)c23)cc1Cl 6.31 µM [activator, single point], CCN1CCN(c2cc(C)c3cc(NC(=O)/C=C/c4cccc(OC)c4OC)ccc3n2)CC1 17.8 µM [activator, single point], COCCCn1c(SCC(=O)Nc2ccccc2OC)nc2c(sc3ccccc32)c1=O 22.4 µM [activator, partial curve, poor fit], CCOc1ccccc1CNC(=O)c1ccc(-n2c(C)cc3c2CCC(C)C3)cc1 (stereo not given) 17.8 µM [activator, single point], O=C(CS(=O)(=O)c1cccc2nsnc12)N1CCN(c2ccccc2F)CC1 35.5 µM [activator, partial curve, poor fit], COc1ccc(NC(=O)CSc2nc(-c3cc(OC)c(OC)c(OC)c3)[nH]c2-c2ccc(F)cc2)cc1 22.4 µM [activator, partial curve, poor fit], Cc1ccc(OCC(=O)Nc2ccccc2C(=O)OCc2cc(=O)n3ccsc3n2)cc1 35.5 µM [activator, single point], CCOc1ccc(CNc2cc(C)nc3nc(-c4cccc(C)c4)nn23)cc1OC 10 µM [activator, partial curve], CN(C)c1ccc(C(CNS(=O)(=O)c2ccc(F)cc2)N2CCOCC2)cc1 (stereo not given) 5.62 µM [activator, single point], Cc1cccc(S(=O)(=O)c2cn(C)c3cc(N4CCN(c5ccc(F)cc5)CC4)c(F)cc3c2=O)c1 17.8 µM [activator, partial curve, poor fit], COc1ccc(C2=NS(=O)(=O)N(C)C(C(=O)N(C)Cc3ccccc3)=C2)cc1OC 15.8 µM [activator, partial curve, poor fit], CCOC(=O)CSc1nc2cc(OC)c(OC)cc2c2nc(-c3ccccc3)nn12 3.55 µM [activator, single point], CCOc1ccc(NC(=O)CSc2nc3c(c(=O)[nH]2)CCCC3)cc1 20 µM [activator, partial curve, poor fit], O=C(CSc1nc2c([nH]c3ccccc32)c(=O)n1-c1ccc(F)cc1)NC1CCCCC1 3.55 µM [activator, full curve], CCOc1ccc(NC(=O)c2c(NCc3sccc3C)sc3c2CCCCC3)cc1 11.2 µM [activator, partial curve, poor fit], Cc1ccccc1NC(=O)c1c(C)oc2ccc(O)c(CN(C)Cc3ccccc3)c12 20 µM [activator, partial curve, poor fit], CCCN(c1ccccc1F)S(=O)(=O)c1cc(-c2cc(C)no2)ccc1C 5.62 µM [activator, single point], COc1ccc(C)cc1-n1c(SCC(=O)NCc2ccco2)nc2c([nH]c3ccccc32)c1=O 17.8 µM [activator, partial curve], CCOC(=O)C(Cc1ccccc1)NC(=O)Cn1nnc(-c2ccc(C)cc2)n1 (stereo not given) 5.01 µM [activator, single point], CCc1sc(Nc2ccc(Cl)cc2)nc1-c1cc2cccc(OC)c2oc1=O 7.94 µM [activator, partial curve], CC(C)(C)NC(=O)c1cnn(-c2ccccc2)c1C1CCN(C(=O)OC(C)(C)C)CC1 35.5 µM [activator, partial curve, poor fit], COc1cccc(NC(=O)CSc2nc3c([nH]c4ccccc43)c(=O)n2-c2ccccc2)c1 11.2 µM [activator, partial curve], Cc1oc(-c2ccccc2)nc1CSc1nnc(C)n2c1cc1sccc12 20 µM [activator, partial curve, poor fit], CCOCc1cc(CN2CCN(c3ccccc3OC)CC2)c(O)c2ncccc12 17.8 µM [activator, partial curve], CNC(=O)c1ccc2c(c1)N(Cc1cc(C)ccc1C)C(=O)c1ccccc1S2 35.5 µM [activator, partial curve, poor fit], COc1ccccc1CNC(=O)c1ccc2[nH]c(C)c(C)c2c1 35.5 µM [activator, partial curve, poor fit], COCc1cc(C)nc2sc(C(=O)Nc3ccc(C(C)=O)cc3)c(N)c12 28.2 µM [activator, partial curve, poor fit], COC(=O)c1ccc(OCC(O)Cn2cnc3cc(C)c(C)cc32)cc1 (stereo not given) 35.5 µM [activator, single point], Cc1cccc(CN2C(=O)c3ccccc3Sc3ccc(C(=O)N4CCCC4)cc32)c1 17.8 µM [activator, single point], CCOc1ccc2c(c1)c(=O)c(C(=O)c1ccccc1)cn2Cc1ccccc1F 25.1 µM [activator, partial curve, poor fit], Cc1cc(C)c(-c2n[nH]c3c2C(c2ccccc2F)N(CCO)C3=O)c(O)c1 (stereo not given) 31.6 µM [activator, partial curve, poor fit], CCc1ccc(Nc2nc(-c3cc4cccc(OC)c4oc3=O)c(CC)s2)cc1 7.08 µM [activator, partial curve], O=C(CSc1nc2c([nH]c3ccccc32)c(=O)n1-c1ccc(F)cc1)Nc1ccc2c(c1)OCCO2 12.6 µM [activator, partial curve], COc1ccc(CCC(=O)NCc2nc3cccnc3n2Cc2ccc(C)cc2)cc1 5.01 µM [activator, single point], COc1ccc(Cl)cc1NC(=O)c1nc(S(C)(=O)=O)ncc1N(Cc1ccc(C)cc1)Cc1ccco1 4.47 µM [activator, single point], Cc1oc2ccc(O)c(CN3CCN(Cc4ccccc4)CC3)c2c1C(=O)Nc1cccc(Cl)c1C 11.2 µM [activator, partial curve], O=C(CCS(=O)(=O)c1nc(-c2cccs2)cc(C(F)(F)F)n1)Nc1ccc(F)c(Cl)c1 3.55 µM [activator, partial curve, poor fit]

Potency, inactive:
O=C(NCCN1CCN(c2cccc(Cl)c2)CC1)Nc1ccccc1C(F)(F)F, Cn1c(SCC(=O)c2ccc(F)cc2)nnc1-c1ccccc1Br, CCOC(=O)c1ccccc1NC(=O)CSc1cc(C)[nH]c(=O)n1, O=c1[nH]c(=O)n(C2CCCCC2)c(O)c1C1=Nc2ccccc2SC(c2ccc(Cl)cc2)C1 (stereo not given), CCOC(=O)C1CCN(C(=O)c2ccc3c(c2)sc2nc(-c4ccc(OC)cc4)cn23)CC1, CCc1ccccc1NC(=O)CC1NCCNC1=O (stereo not given), CN(C)CCCNc1cc(N2CCN(C3CCCCC3)CC2)c2noc3c2c1C(=O)c1ccccc1-3, CCc1ccc(NC(=O)CN2C(=O)c3cccc4cccc2c34)cc1, CCc1ccc(CNC(=O)COc2cc(=O)n(CC)c3ccccc23)cc1, Cc1ccc2nc(-c3c[nH]c4ccccc34)c(Nc3ccccc3C)n2c1, O=C(COc1ccc(Cl)cc1)NCCc1csc(-c2ccc(F)cc2)n1, Cc1ccc(OCCCC(=O)Nc2sc3c(c2C(N)=O)CCC(C)C3)cc1 (stereo not given), Cc1ccc(-n2ncc3c(Nc4ccc(Oc5ccccc5)cc4)ncnc32)cc1, O=c1cc2nc(-c3cccs3)nc(SCCOc3ccc(Cl)cc3)n2[nH]1, COc1ccc(S(=O)(=O)N2CCC(c3nnc(-c4ccccc4C)o3)CC2)c(OC)c1, CCc1ccccc1NC(=O)CCCN1C(=O)COc2ccc(C)cc21, COC(=O)c1ccccc1NC(=O)Cn1c(=O)cc(C)c2c(C)nn(C)c21, COc1ccc(CNC(=O)c2cnn(-c3ccccc3)c2-n2cccc2)cc1OC, Clc1cccc(-c2nc3ccccn3c2Nc2ccc3c(c2)OCCO3)c1, Cc1ccc(C)c(NS(=O)(=O)c2ccc3c4c(cccc24)C(=O)N3)c1, Cc1ccc(CCNc2ncnc3onc(C)c23)cc1, CCOC(=O)C1CCN(c2cc3c(cc2NC(=O)c2ccccc2Cl)n(C)c(=O)n3C)CC1, CCCCOc1ccc(C(=O)Nc2onc3c2CCCC3)cc1, CCN(CC)c1ccc(NS(=O)(=O)c2ccc(-c3coc(C)n3)cc2)c(C)c1
